Screen size: about 340,000 compounds; about 12,000 (3.5%) were called active. The shares of active, inactive and inconclusive entries below differ from those in the screen. The call rests on the fitted dose curve; in most records, active means well fitted inhibition curve with a large enough effect; inconclusive means small, poorly fitted or top-dose-only effect, or another doubt; inactive means no such curve, though single readings can be large or run the other way. No potency is given beside an inconclusive call; the fits are too rough.
Assay: qHTS Assay for Inhibitors of Hepatitis C Virus (HCV)
Settings: Huh7.5.1 HCVcc-Cre (HCVcc is cell-culture hepatitis C virus) infection, luciferase reporter, 44 h; activity change, negative = inhibition: at 41.8 µM (top of the series) unless noted
In short: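 Reporter virus HCVcc-Cre (~0.5 moi) infects cells exposed to compound; seeding density 1,000 cells/well with 4 h settling beforehand. Luminescence, 15 sec read, taken 44 h post-infection following a 15 min RT substrate incubation.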
On the % scale 0 is the no-effect control and ±100 the full control effect; potency means the concentration at half of the fitted maximal effect; tags describe the fitted curve by direction and shape.

Compound | Potency | activity change, negative = inhibition
O=C(Nc1cccc(-c2cnc3ccccc3n2)c1)c1ccncc1 | inconclusive [inhibitor, single point] | 
Nc1nc(=O)c2ccccc2s1 | inactive | 
CCOC(=O)c1c(CN2CCN(c3ccccc3)CC2)oc2ccc(O)cc12 | inconclusive [inhibitor, single point] | 
Cc1c(NC(=O)COC(=O)Cc2ccc(Cl)cc2)c(=O)n(-c2ccccc2)n1C | inconclusive [inhibitor, partial curve] | 
COc1ccccc1OCCCOc1ccc(C)cc1Br | inconclusive [inhibitor, single point] | 
CC1(C)Cc2ccccc2C(/C(=N\Nc2cccc(Cl)c2)C(N)=O)=N1 | inconclusive [inhibitor, partial curve, poor fit] | 
CC(C)CC(=O)NC(=S)Nc1ccccc1F | inconclusive [inhibitor, single point] | 
CC(C)(C)OC(=O)CNC(=O)c1[nH]cnc1C(=O)N[C@@H](CCCCN)C(=O)OC(C)(C)C | inactive | 
COc1ccc(S(=O)(=O)N2CCC(n3cnc4cc(C(F)(F)F)ccc43)CC2)cc1 | inactive | 
CC1(C)N=C(N)N=C(N)N1c1ccccc1 | inconclusive [inhibitor, full curve] | 
COc1ccc(S(=O)(=O)N2CCN(CCOc3ccc(Br)cc3)CC2)cc1OC | inconclusive [inhibitor, full curve] | 
Cc1noc(C)c1CSc1nnc2cc(C)c3ccccc3n12 | inactive | 
CN1CCN(CC(O)(c2ccc(Cl)cc2)c2ccc(Cl)cc2)CC1 | active: 3.16 µM | 
CN1CCN(CC(=O)Nc2ccc(Cl)cc2C(=O)c2ccccc2)CC1 | inconclusive [inhibitor, partial curve] | 
COc1ccc(OC)c(NC(=O)CSc2nc3n[nH]c(C)c3c(=N)n2-c2cccc(Cl)c2C)c1 | inconclusive [inhibitor, partial curve, poor fit] | 
CN(CC(=O)Nc1cccc(F)c1)C(=O)c1ccccc1CCc1ccccc1 | inconclusive [inhibitor, single point] | 
COc1cc(/C=C/C(=O)OCC(=O)N2CCOCC2)ccc1OCC#N | inactive | 
O=C(COc1ccc(C2SCCS2)cc1)Nc1ccc(Cl)cc1 | inactive | 
CCCCCN(C(=O)COC(=O)c1ccc(C)cc1)c1c(N)n(CCCC)c(=O)[nH]c1=O | inconclusive [inhibitor, partial curve] | 
Cc1nc(SCC(=O)N2CCN(C(=O)c3cccs3)CC2)c2c(C)c(C)sc2n1 | inconclusive [inhibitor, single point] | 
CC1(C)NC(C)(C)/C(=C\c2cccs2)C(=O)C1=O | inactive | 
Cc1nc(SCC(=O)NC(C)(C)C)c2c(-c3cccs3)csc2n1 | inconclusive [inhibitor, partial curve, poor fit] | 
Cc1cc[n+](-c2ccccc2)c2ccccc12 | inconclusive [inhibitor, full curve] | 
COc1ccc(Nc2nc3c(C)cccn3c(=O)c2C=NCc2ccccc2)cc1 | inconclusive [inhibitor, single point] | 

Compound | Potency | activity change, negative = inhibition
COc1ccc(CCNC(=O)c2cc3sc(Cl)cc3n2C)cc1OC | inconclusive [inhibitor, partial curve] | 
CCC(=O)N(Cc1cc2ccc(C)cc2[nH]c1=O)c1ccccc1OC | inactive | 
O=C(/C=C/c1ccc(Cl)cc1)NC1CC2CCC1C2 (configuration not stated) | inactive | 
Cc1ccc(C)c(N2CCN(C(=O)C(Cc3ccccc3)n3cccc3)CC2)c1 (configuration not stated) | inconclusive [inhibitor, single point] | 
CCCN(C(=O)c1cn(-c2ccccc2)nc1-c1ccc(OC)cc1)C1CCS(=O)(=O)C1 (configuration not stated) | inactive | 
CCN(CC)c1ccc(NC(=O)c2cc3c(OC)cccc3[nH]2)cc1 | inconclusive [inhibitor, single point] | 
CC(C(=O)NCC1CCCCC1)N(C)Cc1ccc(Cl)cc1 (configuration not stated) | inactive | 
Cc1ccc(S(=O)(=O)Nc2cccc(C(=O)NCc3cccnc3)c2)cc1F | inconclusive [inhibitor, full curve, poor fit] | 
CCOc1c(S(=O)(=O)N2CCCC2)ccc(Cl)c1Cl | inconclusive [inhibitor, single point] | 
CCN1CCN(CCCNc2ncnc3nc[nH]c23)CC1 | inactive | 
Cc1ccc(CSCc2ccc(C(=O)NC3CC3)o2)cc1 | inactive | 
CCCn1c(C)cc(/C=C(\C#N)C(=O)OCC(=O)Nc2ccc(OC)c(Cl)c2)c1C | inconclusive [inhibitor, partial curve] | 
O=S1(=O)C=C(Sc2nc3ccccc3s2)c2ccccc21 | active: 5.01 µM | 
CCN(CC)S(=O)(=O)c1ccc(Nc2nc3ccccc3n3nnnc23)cc1 | inactive | 
N#C/C(=C\c1cc([N+](=O)[O-])c(N2CCOCC2)cc1N1CCOCC1)c1nc2ccccc2[nH]1 | inconclusive [inhibitor, partial curve] | 
COc1ccc(-c2nc(N3CCN(C)CC3)sc2-c2ccc(OC)cc2)cc1 | inconclusive [inhibitor, single point] | 
COc1cccc(C(=O)OC(C)C(=O)Nc2ccc3c(c2)OCO3)c1 (configuration not stated) | inconclusive [inhibitor, single point] | 
CCOC(=O)N1CCc2c(sc(NC(=O)C3COc4ccccc4O3)c2C(N)=O)C1 (configuration not stated) | active: 15.8 µM | 
COC(=O)Cc1c(C)c2ccc(OCC(=O)N3CCC(C)CC3)c(C)c2oc1=O | inconclusive [inhibitor, single point] | 
CCOc1ncccc1C(=O)NCCc1ccc(S(N)(=O)=O)cc1 | inactive | 
N#Cc1c2nc3ccccc3nc2n2cc(NC(=O)c3ccc(F)cc3)ccc12 | inconclusive [inhibitor, single point] | 
CN(Cc1cn(C)nc1-c1ccccc1F)CC1CCCCO1 (configuration not stated) | inactive | 
O=C(Cn1cnc2c(nnn2Cc2ccccc2)c1=O)NCC1CCCO1 (configuration not stated) | inconclusive [inhibitor, partial curve] | 
CCN(Cc1ccccc1)C1CCN(Cc2ccccc2)CC1 | inactive | 

Compound | Potency | activity change, negative = inhibition
COc1ccc(NC(=O)c2cc(F)cc(F)c2)cc1Cl | inconclusive [inhibitor, single point] | 
O=C(Nc1cc(F)ccc1F)c1ccc(-n2cncn2)c([N+](=O)[O-])c1 | inactive | 
CC(C)CNCC1OCc2ccccc2CO1 | inconclusive [inhibitor, single point] | 
CSc1ccc(C#N)cc1NC(=O)c1cccc(Cl)c1 | inconclusive [inhibitor, partial curve, poor fit] | 
CCOc1ccccc1C(=O)Nc1cc(Cl)ccc1O | active: 7.08 µM | 
O=C(Nc1ccc(-c2cn3c(n2)SCC3)cc1)c1ccco1 | inconclusive [inhibitor, single point] | 
CC/C(=N\Nc1ccnc2cc(Cl)ccc12)c1ccc(O)cc1 | inconclusive [inhibitor, partial curve] | 
Cc1ccc(OCCNS(=O)(=O)c2ccc(N3CCCC3=O)cc2)cc1C | inconclusive [inhibitor, single point] | 
CS(=O)(=O)N(Cc1ccc(Cl)cc1)c1ccc(C(=O)N/N=C/c2cc3ccccc3nc2Cl)cc1 | inconclusive [inhibitor, single point] | 
CCOc1ccccc1N(CC(=O)Nc1cccc2ccccc12)S(C)(=O)=O | inactive | 
Cc1cc(C(=O)Cn2nnc(-c3ccc(Cl)cc3)n2)c(C)n1CC1CCCO1 (configuration not stated) | active: 7.94 µM | 
CC1(C)Cc2c(C#N)c(NCC3CCCO3)nc(-c3ccco3)c2CO1 (configuration not stated) | inconclusive [inhibitor, single point] | 
CN1CCC[C@@H]1CCO[C@](C)(c1ccccc1)c1ccc(Cl)cc1 | inconclusive [inhibitor, full curve, poor fit] | 
N#Cc1nc(COc2cccc(Cl)c2)oc1N1CCCC1 | inconclusive [inhibitor, single point] | 
COc1ccc(NC(=O)c2oc3ccccc3c2NC(=O)C(C)(C)C)cc1 | inconclusive [inhibitor, full curve, poor fit] | 
COCC1CCCCN1C(=O)c1ccc2nc(Cc3ccc(OC)c(OC)c3)oc2c1 (configuration not stated) | inconclusive [inhibitor, single point] | 
CCN(CC)Cc1c(O)ccc2c(C)c(CC(=O)OC)c(=O)oc12 | inactive | 
Cc1cc(C)cc(NC(=O)Cn2nnc(C(=O)NCc3ccccc3Cl)c2N)c1 | inactive | 
COc1ccc(/C=C/C(=O)c2ccc(NC3=NCCCS3)cc2)cc1OC | inconclusive [inhibitor, partial curve] | 
O=C(Cc1ccc(NC(=O)C2CCCN(C(=O)C3CCCCC3)C2)cc1)Nc1cccc(C(=O)N2CCCCC2)c1 (configuration not stated) |  | inactive: -22.8% [at 8.37 µM]
CN(C)CCCNc1oc(/C=C/c2cccs2)nc1S(=O)(=O)c1ccccc1 | inconclusive [inhibitor, single point] | 
CCN(CC)CCNC(=O)c1ccc(Sc2ccc(Cl)cc2)c(NC(C)=O)c1 | inconclusive [inhibitor, single point] | 
O=C(NCc1cccnc1)c1ccc(CS(=O)(=O)c2ccc(Br)cc2)o1 | inconclusive [inhibitor, single point] | 
C/C(=N/NS(=O)(=O)c1ccc(C)cc1C)c1c[nH]c2ccccc12 | inconclusive [inhibitor, single point] | 

Reference: PubChem BioAssay AID651820 (National Center for Advancing Translational Sciences (NCATS), 2012)
